About 220 (0.56%) of roughly 39,000 compounds showed activity. This is one part of the list.
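Further: static incubation at 37 °C against the wild-type strain, values averaged over two biological replicates.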

For the assay, the system named is Escherichia coli K-12 BW25113. The assay is described as follows: relative growth (OD600 normalised to plate interquartile mean) (fraction); higher = less growth inhibition, active = 0.2 or less. To be noted: 50 µM; LB; incubation time: overnight (16-24 h).
Consider `C[C@@H]1CN([C@@H](C)CO)C(=O)Cc2cc(NC(=O)CCN3CCOCC3)ccc2O[C@@H]1CN(C)C(=O)Nc1ccc(F)cc1`, for which the relative growth is inactive: 0.992. Consider `COc1ccc(S(=O)(=O)Nc2cccc3c2O[C@@H](CN(C)S(=O)(=O)c2ccccc2)[C@@H](C)CN([C@@H](C)CO)C3=O)cc1`, for which the relative growth was inactive: 1.01. `C[C@H]1CN([C@@H](C)CO)C(=O)CCCn2nncc2CO[C@H]1CN(C)S(C)(=O)=O`: the relative growth is inactive: 0.986. For `C[C@H](CO)N1C[C@H](C)[C@@H](CN(C)C(=O)Nc2ccccc2)Oc2ccc(NS(C)(=O)=O)cc2CC1=O`, the relative growth is inactive: 0.982. As to `O=C(C[C@H]1CC[C@H]2[C@@H](COC[C@@H](O)CN2C(=O)c2ccccc2)O1)N1CCOCC1`, the relative growth is inactive: 0.996. For `O=C(Nc1ccccc1)C1=C[C@@H](c2ccc3c(c2)Cc2ccccc2-3)C[C@@H](OCc2ccc(CO)cc2)O1`, the relative growth was inactive: 1.03. With `C[C@@H]1CCCCO[C@@H](CN(C)C(=O)NC2CCCCC2)[C@@H](C)CN([C@@H](C)CO)C(=O)c2cc(NC(=O)Nc3ccc(F)cc3)ccc2O1`, the relative growth is inactive: 1. Take `CCn1cc(C(=O)O)c(=O)c2cc(F)c(N3CCNCC3)cc21`: the relative growth was active: 0.0456.

Consider `COc1ccc(S(=O)(=O)Nc2ccc3c(c2)CC(=O)N([C@H](C)CO)C[C@@H](C)[C@H](CN(C)Cc2ccc(-c4ccccc4)cc2)O3)cc1`, for which the relative growth is inactive: 1.04. Next, `CCC(CC)[C@H](NC(C)=O)[C@@H]1[C@H](O)[C@@H](C(=O)O)C[C@H]1NC(=N)N`: inactive: 0.98; `COC(=O)c1c(C)cc(OC(=O)c2c(C)cc(O)c(CO)c2O)c(C)c1O`: inactive: 0.958. Take `C[C@H](CO)N1C[C@H](C)[C@H](CN(C)Cc2ccc(C(=O)O)cc2)Oc2c(NC(=O)c3ccncc3)cccc2C1=O`: the relative growth was inactive: 0.989.

As for `Cc1noc(C)c1S(=O)(=O)Nc1ccc2c(c1)C(=O)N([C@@H](C)CO)C[C@H](C)[C@H](CN(C)S(=O)(=O)c1cccs1)O2`, the relative growth was inactive: 1.02. In the case of `C[C@H]1CN([C@@H](C)CO)C(=O)Cc2cc(NC(=O)C3CC3)ccc2O[C@H]1CN(C)Cc1ccc2c(c1)OCO2`, the relative growth was inactive: 0.971. With `Cc1ccc(S(=O)(=O)N[C@@H]2C=C[C@@H](CC(=O)NCCN3CCCCC3)O[C@@H]2CO)cc1`, the relative growth is inactive: 1.07. The value for `COc1ccc(S(=O)(=O)Nc2ccc3c(c2)CC(=O)N([C@H](C)CO)C[C@H](C)[C@@H](CN(C)S(=O)(=O)c2c(C)noc2C)O3)cc1` was inactive: 0.984; that for `C[C@@H]1CN([C@H](C)CO)C(=O)c2cc(NC(=O)Nc3ccc(C(F)(F)F)cc3)ccc2O[C@@H](C)CCCCO[C@H]1CN(C)Cc1ccc(Cl)c(Cl)c1` was inactive: 1.01. Next, `C[C@@H]1CN([C@@H](C)CO)C(=O)c2cccc(NC(=O)c3cnccn3)c2O[C@H]1CN(C)S(=O)(=O)c1ccccc1`: inactive: 0.991; `C[C@H]1CN([C@@H](C)CO)C(=O)c2cccc(NS(=O)(=O)c3cccs3)c2O[C@@H]1CN(C)S(=O)(=O)c1cn(C)cn1`: inactive: 1.02; `C[C@@H]1CN([C@H](C)CO)C(=O)c2cccc(NS(=O)(=O)c3cccs3)c2O[C@@H]1CN(C)Cc1ccncc1`: inactive: 1.02. Next, `CO[C@H]1C[C@@H]2CC[C@@H](C)[C@@](O)(O2)C(=O)C(=O)N2CCCC[C@@H]2C(=O)O[C@H]([C@H](C)C[C@@H]2CC[C@@H](O)[C@H](OC)C2)CC(=O)[C@H](C)/C=C(\C)[C@@H](O)[C@@H](OC)C(=O)[C@H](C)C[C@H](C)/C=C/C=C/C=C/1C`: inactive: 0.979; `CC(C)NC(=O)Nc1ccc2c(c1)C(=O)N([C@H](C)CO)C[C@@H](C)[C@H](CN(C)Cc1ccc3c(c1)OCO3)O2`: inactive: 0.984; `O=C1O[C@@H](c2ccccc2)[C@@H](c2ccccc2)N2[C@@H](c3ccc(OCCO)cc3)[C@]3(C(=O)Nc4ccccc43)[C@@H](C(=O)Nc3nc4ccccc4s3)[C@H]12`: inactive: 0.99. Take `Cc1ccc(S(=O)(=O)N(C)C[C@H]2OCCCC[C@@H](C)Oc3ccc(NC(=O)CCCCCC(=O)Nc4ccccc4N)cc3C(=O)N([C@H](C)CO)C[C@@H]2C)cc1`: the relative growth is inactive: 1.

As to `COc1ccc2c(-c3ccc(Cl)cc3)c(C)oc2c1`, the relative growth is inactive: 0.93.

For the compound `C[C@H](CO)N1C[C@H](C)[C@@H](CN(C)Cc2ccc(-c3ccccc3)cc2)Oc2ccc(NC(=O)Cn3cnnn3)cc2C1=O`, the relative growth is inactive: 1.02. Regarding `C[C@@H]1CN([C@@H](C)CO)S(=O)(=O)c2ccc(C#Cc3ccncc3)cc2O[C@@H]1CN(C)S(=O)(=O)c1ccc(F)cc1`, the relative growth was inactive: 1.03. Turning to `C[C@H](CO)N1C[C@H](C)[C@H](CN(C)Cc2ccc(C(F)(F)F)cc2)Oc2ccc(NC(=O)Nc3ccc(F)cc3)cc2CC1=O`, the relative growth is inactive: 1.02. In the case of `C=CCN1[C@H](Cc2ccccc2)[C@@H](c2cn(CCCCNC(=O)C(=O)NC)nn2)Oc2ccccc2S1(=O)=O`, the relative growth is inactive: 0.993.

In the case of `C[C@@H]1CN([C@H](C)CO)C(=O)c2cc(NC(=O)Nc3cccc4ccccc34)ccc2O[C@H]1CN(C)S(=O)(=O)c1cccs1`, the relative growth is inactive: 1. For the compound `Cc1ccc(S(=O)(=O)Nc2ccc3c(c2)C(=O)N([C@H](C)CO)C[C@@H](C)[C@H](CN(C)C(=O)NC2CCCCC2)OCCCC[C@@H](C)O3)cc1`, the relative growth is inactive: 1.01.

Regarding `Cc1ccc(S(=O)(=O)N(C)C[C@H]2Oc3ccc(NS(=O)(=O)c4c(C)noc4C)cc3CC(=O)N([C@H](C)CO)C[C@H]2C)cc1`, the relative growth was inactive: 1. With `COc1ccc(C#Cc2cnc3c(c2)C(=O)N([C@H](C)CO)C[C@H](C)[C@H](CN(C)CC2CCOCC2)O3)cc1`, the relative growth is inactive: 1.03. In the case of `COCC(=O)N[C@@H]1C=C[C@@H](CC(=O)N2CCCCC2)O[C@@H]1CO`, the relative growth was inactive: 0.984. As to `O=C1COC2(CCN(C(=O)C3CCOCC3)CC2)CN1`, the relative growth is inactive: 0.983. With `C[C@H]1CN([C@@H](C)CO)C(=O)c2cc(NC(=O)C3CCCCC3)ccc2O[C@H]1CN(C)S(=O)(=O)c1cn(C)cn1`, the relative growth is inactive: 0.968. Next, `C[C@@H]1CN([C@H](C)CO)C(=O)c2cc(NC(=O)CCCN(C)C)ccc2O[C@H]1CN(C)Cc1ccccc1`: inactive: 1.03.
